The record followed here is the supplement of paper PMC9446081.

Each structure is given as a SMILES string. The campaign covered roughly 39,000 compounds. About 220 (0.56%) showed activity. The list shows a part of the results.
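Further: static incubation at 37 °C against the wild-type strain, values averaged over two biological replicates.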

The test concerns Escherichia coli K-12 BW25113. Briefly: relative growth (OD600 normalised to plate interquartile mean) (fraction); higher = less growth inhibition, active = 0.2 or less. The note with it: 50 µM; LB; incubation time: overnight (16-24 h).
Turning to `C[C@H]1CCCCO[C@H](CN(C)S(=O)(=O)c2ccccc2)[C@@H](C)CN([C@@H](C)CO)C(=O)c2cc(NC(=O)Nc3ccccc3)ccc2O1`, the relative growth was inactive: 1.02.

Regarding `Cc1ccc2nc3c(cc(C(=O)NCCN4CCOCC4)c(=N)n3C[C@H]3CCCO3)c(=O)n2c1`, the relative growth is inactive: 1.01.

For `CCCNC(=O)N1C[C@@H](C)[C@H](OC)CN(C)C(=O)c2ccc(NS(=O)(=O)CC(F)(F)F)cc2OC[C@@H]1C`, the relative growth is inactive: 0.976.

On to `COc1ccc2cccc(CCNC(C)=O)c2c1`, for which the relative growth is inactive: 1.08.

On to `CN(C)CCCCSC(=N)N`, for which the relative growth is inactive: 1.

With `C[C@H](CO)N1C[C@H](C)[C@H](CN(C)S(=O)(=O)c2ccccc2)OCCCC[C@H](C)Oc2ccc(NC(=O)Nc3ccc4c(c3)OCO4)cc2C1=O`, the relative growth was inactive: 1.01.

On to `CC(C)[C@@H](CC[C@@H](C)[C@H]1CC[C@H]2[C@@H]3[C@H](O)C[C@H]4C[C@@H](NCCCNCCCCNCCCN)CC[C@]4(C)[C@H]3CC[C@]12C)OS(=O)(=O)O`, for which the relative growth was active: 0.152.

`C[C@@H]1CN([C@H](C)CO)C(=O)Cc2cc(NS(=O)(=O)c3ccc(F)cc3)ccc2O[C@H]1CN(C)Cc1ccc(Cl)c(Cl)c1`: the relative growth was inactive: 1.01.

Take `C[C@H]1CN([C@@H](C)CO)C(=O)c2cc(NS(C)(=O)=O)ccc2O[C@@H]1CN(C)C(=O)Nc1ccc(C(F)(F)F)cc1`: the relative growth is inactive: 0.954.

For the compound `Cc1ccc(S(=O)(=O)Nc2ccc3c(c2)CC(=O)N([C@@H](C)CO)C[C@@H](C)[C@@H](CN(C)Cc2ccc(Cl)c(Cl)c2)O3)cc1`, the relative growth was inactive: 0.987.

For the compound `CCN(CC)CCNC(=O)C(=O)NC1CC1`, the relative growth was inactive: 1.02.

Turning to `CO[C@H]1CN(C)C(=O)c2cc(NC(=O)c3ccc(F)cc3)ccc2OC[C@H](C)N(C(=O)CN(C)C)C[C@H]1C`, the relative growth was inactive: 1.01.

For the compound `C[C@@H]1CCCCO[C@H](CN(C)S(=O)(=O)c2ccc(F)cc2)[C@H](C)CN([C@@H](C)CO)C(=O)c2cc(NS(C)(=O)=O)ccc2O1`, the relative growth is inactive: 1.01.

With `C=C1CC[C@H]2[C@H](CN)[C@@H]([C@@]3(C)CC[C@H](O)C[C@@H]3CO)CC[C@]12C`, the relative growth was inactive: 1.

With `C[C@H](CO)N1C[C@H](C)[C@@H](CN(C)C)Oc2cc(C#CCN(C)C)ccc2S1(=O)=O`, the relative growth is inactive: 0.994.

As to `C[C@@H]1CN([C@H](C)CO)C(=O)c2cccc(NC(=O)c3ccc(-c4nccs4)cc3)c2O[C@@H]1CN(C)C(=O)Nc1ccc2c(c1)OCO2`, the relative growth is inactive: 0.98.

In the case of `Cc1cccc(S(=O)(=O)N2C[C@H](O)COC[C@H]3O[C@@H](CC(=O)N4CCN(C)CC4)CC[C@@H]32)c1`, the relative growth is inactive: 0.999.

For the compound `C[C@H]1CN([C@@H](C)CO)C(=O)Cc2cc(NC(=O)CCN3CCOCC3)ccc2O[C@H]1CN(C)Cc1ccc(C(=O)Nc2ccccc2N)cc1`, the relative growth was inactive: 1.03.

For `CC1(C)CC(=O)C(=CNC(CO)(CO)CO)C(=O)C1`, the relative growth was inactive: 0.994.

In the case of `C[C@H](CO)N1C[C@H](C)[C@H](CN(C)Cc2ccc(C(=O)O)cc2)Oc2ccc(NS(C)(=O)=O)cc2C1=O`, the relative growth was inactive: 0.986.

Take `CC(C)NC(=O)Nc1ccc2c(c1)C(=O)N([C@H](C)CO)C[C@H](C)[C@H](CN(C)Cc1ccccc1)OCCCC[C@H](C)O2`: the relative growth was inactive: 1.01.

On to `CC[C@H]1CN(C)N1C(=O)[C@@H]1CCCO1`, for which the relative growth is inactive: 1.01.

On to `COc1cccc(C#Cc2ccc3c(c2)O[C@H](CN(C)C(=O)c2ccccn2)[C@@H](C)CN([C@@H](C)CO)S3(=O)=O)c1`, for which the relative growth was inactive: 1.08.

For `C[C@@H]1CN([C@@H](C)CO)C(=O)c2cc(NC(=O)CCCN(C)C)ccc2O[C@@H]1CN(C)S(=O)(=O)c1cccs1`, the relative growth was inactive: 1.

For the compound `COc1ccc(CN(C)C[C@@H]2OCCCC[C@@H](C)Oc3ccc(NS(=O)(=O)c4ccc(Cl)cc4)cc3C(=O)N([C@H](C)CO)C[C@H]2C)cc1`, the relative growth was inactive: 1.01.

As for `C[C@@H]1CN([C@H](C)CO)C(=O)c2cc(NC(=O)C3CC3)ccc2O[C@H]1CN(C)C(=O)Nc1ccc2c(c1)OCO2`, the relative growth is inactive: 1.01.

Take `CC(C)NC(=O)N[C@H]1CC[C@@H](CCN)O[C@H]1CO`: the relative growth is inactive: 0.98.

On to `C[C@H](CO)N1C[C@H](C)[C@@H](CN(C)S(=O)(=O)c2ccc(F)cc2)Oc2ccc(NC(=O)CCCN(C)C)cc2CC1=O`, for which the relative growth was inactive: 1.01.

`C[C@@H]1CN([C@@H](C)CO)C(=O)c2cc(NC(=O)Cn3cnnn3)ccc2O[C@@H]1CN(C)Cc1ccncc1`: the relative growth is inactive: 1.

For `C[C@H]1CC=CC[C@H](c2ccc3c(c2)OCO3)NC(=O)[C@H](Cc2ccccc2)N(C)C(=O)c2ccccc2O1`, the relative growth was inactive: 1.01.

For `CC(C)CC#Cc1cnc2c(c1)C(=O)N([C@H](C)CO)C[C@H](C)[C@H](CN(C)C(=O)CCN1CCCCC1)O2`, the relative growth was inactive: 1.02.

Consider `C[C@H](CO)N1C[C@H](C)[C@@H](CN(C)C(=O)Nc2ccc(F)cc2)OCCCC[C@H](C)Oc2ccc(NC(=O)C3CCCCC3)cc2C1=O`, for which the relative growth was inactive: 1.01.

Turning to `CC(C)N1C[C@@H](C)[C@H](CN(C)Cc2ccc(OCCCC(F)(F)C(F)(F)C(F)(F)C(F)(F)C(F)(F)C(F)(F)C(F)(F)C(F)(F)F)cc2)Oc2c(NC(=O)c3ccncc3)cccc2C1=O`, the relative growth is inactive: 1.01.

Consider `C[C@H]1CCCCO[C@H](CN(C)Cc2ccccc2)[C@@H](C)CN([C@@H](C)CO)C(=O)c2cc(NS(=O)(=O)c3ccc(F)cc3)ccc2O1`, for which the relative growth is inactive: 1.01.

As to `COc1ccc(NC(=O)Nc2ccc3c(c2)C(=O)N([C@@H](C)CO)C[C@H](C)[C@@H](CN(C)S(=O)(=O)c2cn(C)cn2)O3)cc1`, the relative growth is inactive: 0.989.

Consider `C[C@@H]1CN([C@@H](C)CO)C(=O)Cc2cc(NS(=O)(=O)c3ccc(Cl)cc3)ccc2O[C@@H]1CN(C)Cc1ccc(C(F)(F)F)cc1`, for which the relative growth was inactive: 1.03.

Turning to `CC(=O)NCCCC[C@@H]1NC(=O)[C@@H]2C[C@H](C(=O)NCCCCN(C)C)[C@H](c3cccc(OCCO)c3)N2C1=O`, the relative growth was inactive: 0.998.

In the case of `O=C(O)c1csc2ccccc12`, the relative growth is inactive: 0.988.

Consider `COc1cccc(NC(=O)N[C@@H]2C=C[C@@H](CC(=O)N3CCOCC3)O[C@H]2CO)c1`, for which the relative growth was inactive: 0.9.

Take `C[C@H]1CN([C@@H](C)CO)C(=O)c2cccc(NC(=O)Nc3ccc(C(F)(F)F)cc3)c2O[C@H]1CN(C)S(=O)(=O)c1ccc(F)cc1`: the relative growth was inactive: 0.841.

Turning to `C[N+](C)(C)CCCCNC(=O)[C@@H]1C[C@@H]2C(=O)N[C@@H](Cc3ccccc3)C(=O)N2[C@@H]1c1cccc(OCCO)c1`, the relative growth was inactive: 0.982.

On to `COc1ccc(S(=O)(=O)N(C)C[C@@H]2Oc3ccc(NC(=O)CCCN(C)C)cc3CC(=O)N([C@@H](C)CO)C[C@@H]2C)cc1`, for which the relative growth is inactive: 1.01.

With `C[C@H](CO)N1C[C@H](C)[C@@H](CN(C)CC2CCCCC2)OCCCC[C@H](C)Oc2ccc(NC(=O)Nc3ccc(C(F)(F)F)cc3)cc2C1=O`, the relative growth was inactive: 1.

As for `COCCCOc1ccnc(CS(=O)c2nc3ccccc3[n-]2)c1C.[Na+]` (stereo not given), the relative growth was inactive: 1.02.

On to `COc1ccc(NC(=O)Nc2ccc3c(c2)C(=O)N([C@@H](C)CO)C[C@@H](C)[C@H](CN(C)C(=O)Nc2ccc(C(F)(F)F)cc2)O3)cc1`, for which the relative growth was inactive: 1.

For `Cc1ccc(S(=O)(=O)N[C@@H](Cc2ccccc2)C(=O)NCCCn2cc(CN3C(=O)COC[C@H]3c3ccccc3)nn2)cc1`, the relative growth was inactive: 0.982.

Turning to `C[C@@H]1CCCCO[C@H](CN(C)Cc2ccc(Cl)c(Cl)c2)[C@@H](C)CN([C@H](C)CO)C(=O)c2cc(NS(=O)(=O)c3cn(C)cn3)ccc2O1`, the relative growth was inactive: 0.993.

Regarding `Cc1noc(C)c1NC(=O)Nc1ccc2c(c1)C(=O)N([C@@H](C)CO)C[C@@H](C)[C@@H](CN(C)Cc1ccc(C(F)(F)F)cc1)OCCCC[C@H](C)O2`, the relative growth is inactive: 0.99.

With `Cc1ccc(S(=O)(=O)Nc2ccc3c(c2)C(=O)N([C@H](C)CO)C[C@@H](C)[C@H](CN(C)Cc2ccncc2)OCCCC[C@H](C)O3)cc1`, the relative growth is inactive: 0.98.

In the case of `CC(C)(C)c1ccc(CSCc2nc3ccccc3[nH]2)cc1`, the relative growth was inactive: 0.898.

Turning to `C[C@H]1CN([C@@H](C)CO)C(=O)c2cc(NS(=O)(=O)c3cccs3)ccc2O[C@@H]1CN(C)Cc1ccc(-c2ccccc2)cc1`, the relative growth was inactive: 0.969.

For `CCS(=O)(=O)NCC[C@@H]1CC[C@@H](NS(=O)(=O)c2ccccc2C)[C@@H](CO)O1`, the relative growth is inactive: 0.994.

For the compound `CCN(CC)CCOC(=O)C1(C2CCCCC2)CCCCC1.Cl`, the relative growth is inactive: 1.14.

`Cc1cc(C)n(-c2nc(=O)cc(C)[nH]2)n1`: the relative growth is inactive: 0.913.

For the compound `Cc1ccc(S(=O)(=O)Nc2ccc3c(c2)CC(=O)N([C@@H](C)CO)C[C@H](C)[C@H](CN(C)Cc2ccc(Oc4ccccc4)cc2)O3)cc1`, the relative growth was inactive: 0.981.

For `C[C@@H]1CN([C@@H](C)CO)C(=O)c2cccc(NS(=O)(=O)c3cn(C)cn3)c2O[C@@H]1CN(C)S(=O)(=O)c1cccs1`, the relative growth was inactive: 1.01.

On to `COc1cccc(-c2cnc3c(c2)C(=O)N([C@H](C)CO)C[C@H](C)[C@H](CN(C)S(=O)(=O)c2ccc(C#N)cc2)O3)c1`, for which the relative growth was inactive: 0.986.

As to `CCCN(C)C[C@@H]1OCCCC[C@@H](C)Oc2ccc(NC(=O)CCC(F)(F)F)cc2C(=O)N([C@@H](C)CO)C[C@@H]1C`, the relative growth was inactive: 0.983.

On to `Cc1noc(C)c1NC(=O)Nc1cccc2c1O[C@H](CN(C)Cc1ccc(C(F)(F)F)cc1)[C@@H](C)CN([C@H](C)CO)C2=O`, for which the relative growth is inactive: 0.965.

For the compound `C[C@@H]1CN([C@H](C)CO)C(=O)c2cc(NS(=O)(=O)c3ccc(F)cc3)ccc2O[C@@H]1CN(C)S(C)(=O)=O`, the relative growth is inactive: 0.988.
